Measured values taken from the supplement of paper PMC6089552.
Hit rate of the full screen: of about 3,200 compounds, about 300 (9.4%) showed activity. The entries are a selection whose mix differs from that of the whole data set.

Tested on: A673/TR/shEF
Test: cell viability (LOESS-normalised, relative to median of negative controls) (log2 ratio); higher = more viable cells (less compound effect), active = hit call of the paper (over 3 MAD below the median)
Conditions: treatment time: 72 h
Summary of the method: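 A673/TR/shEF Ewing sarcoma cells (1,500 per well, 384-well plates) were grown with or without doxycycline to induce EWS-FLI1 shRNA knockdown, starting 24 h before compounds. Library compounds at two or more concentrations, with DMSO controls, were added for three days. Cell viability was read by CellTiter-Glo luminescence on an Envision reader, then LOESS-corrected per plate, divided by the median of negative controls and log2-transformed. Hits were wells at least three median absolute deviations from the median of all screened wells.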

[1] = 0.25 µM, library screen: screen1, EWS-FLI1 expression: high (no doxycycline)
[2] = 0.25 µM, library screen: screen1, EWS-FLI1 expression: low (doxycycline-induced shRNA knockdown)
[3] = 2.5 µM, library screen: screen1, EWS-FLI1 expression: high (no doxycycline)
[4] = 2.5 µM, library screen: screen1, EWS-FLI1 expression: low (doxycycline-induced shRNA knockdown)
[5] = 0.103 µM, library screen: screen3, EWS-FLI1 expression: high (no doxycycline)
[6] = 0.103 µM, library screen: screen3, EWS-FLI1 expression: low (doxycycline-induced shRNA knockdown)
[7] = 0.308 µM, library screen: screen3, EWS-FLI1 expression: high (no doxycycline)
[8] = 0.308 µM, library screen: screen3, EWS-FLI1 expression: low (doxycycline-induced shRNA knockdown)
[9] = 0.926 µM, library screen: screen3, EWS-FLI1 expression: high (no doxycycline)
[10] = 0.926 µM, library screen: screen3, EWS-FLI1 expression: low (doxycycline-induced shRNA knockdown)
[11] = 2.8 µM, library screen: screen3, EWS-FLI1 expression: high (no doxycycline)
[12] = 2.8 µM, library screen: screen3, EWS-FLI1 expression: low (doxycycline-induced shRNA knockdown)
[13] = 8.3 µM, library screen: screen3, EWS-FLI1 expression: high (no doxycycline)
[14] = 8.3 µM, library screen: screen3, EWS-FLI1 expression: low (doxycycline-induced shRNA knockdown)
[15] = 25 µM, library screen: screen3, EWS-FLI1 expression: high (no doxycycline)
[16] = 25 µM, library screen: screen3, EWS-FLI1 expression: low (doxycycline-induced shRNA knockdown)
[17] = 0.25 µM, library screen: screen2, EWS-FLI1 expression: high (no doxycycline)
[18] = 0.25 µM, library screen: screen2, EWS-FLI1 expression: low (doxycycline-induced shRNA knockdown)
[19] = 2.5 µM, library screen: screen2, EWS-FLI1 expression: high (no doxycycline)
[20] = 2.5 µM, library screen: screen2, EWS-FLI1 expression: low (doxycycline-induced shRNA knockdown)

Measured: cell viability (log2)

C[C@H]1[C@H](C)CC[C@]2(C(=O)O)CC[C@]3(C)C(=CC[C@@H]4[C@@]5(C)CC[C@H](O)C(C)(C)[C@@H]5CC[C@]43C)[C@H]12
inactive: [1] 0.086 | [2] -0.0788 | [3] 0.14 | [4] -0.02

NC(=O)Nc1cc(-c2cccc(F)c2)sc1C(=O)N[C@H]1CCCNC1
inactive: [5] 0.0878 | [6] -0.0161 | [7] 0.0969 | [8] 0.0124 | [9] 0.0104 | [10] 0.0143 | [11] 0.0125 | [12] 0.004 | [13] 0.0348 | [14] 0.0727 | [15] 0.0502 | [16] 0.0243

Oc1ccc2c(c1)OC[C@H]1c3cc4c(cc3O[C@@H]21)OCO4
inactive: [1] 0.0543 | [2] -0.104 | [3] 0.119 | [4] 0.0894

O=C(c1ccc(F)cc1)C1CCN(CCn2c(=O)[nH]c3ccccc3c2=O)CC1
active: [17] -0.282 | [18] -0.245 | [19] -2.12 | [20] -2.83

CCN(CC)C(=O)c1ccc(O)c(OC)c1
inactive: [17] 0.169 | [18] -0.0132 | [19] 0.114 | [20] -0.052

NC1(C(=O)O)CC1
inactive: [1] 0.064 | [2] 0.0956 | [3] 0.122 | [4] 0.0925 | [19] 0.123 | [20] 0.0434
active: [17] -0.141 | [18] -0.0707

CC(=O)[C@@]1(O)CC[C@H]2[C@@H]3CCC4=CC(=O)CC[C@]4(C)[C@H]3CC[C@@]21C
inactive: [1] 0.135 | [2] 0.114 | [17] 0.00581 | [18] 0.114 | [3] 0.103 | [4] -0.0537 | [19] 0.141 | [20] 0.0883

Nc1nccc(Oc2ccc(NC(=O)c3c[nH]cc(-c4ccc(F)cc4)c3=O)cc2F)c1Cl
inactive: [5] 0.0573 | [6] 0.129 | [7] -0.0185 | [8] 0.0852 | [9] 0.059 | [10] 0.0991 | [11] 0.111 | [12] 0.205 | [13] 0.0158 | [14] 0.199 | [15] -0.109 | [16] 0.174

CN(C)CCOC(c1ccccc1)c1ccccc1.Cn1c(=O)c2[nH]c(Cl)nc2n(C)c1=O
inactive: [1] 0.158 | [2] 0.107 | [3] 0.172 | [4] 0.13

CSC(=N)N
inactive: [17] 0.199 | [18] 0.177 | [19] 0.163 | [20] 0.129
